The campaign covered roughly 420,000 compounds. About 64,000 (15%) were called active. Inconclusive results, whose numbers are uncertain, are shown with a selection of clear calls. Calls come from the whole dose curve; as a rule, active = well fitted inhibition curve with a large enough effect; inconclusive = small, poorly fitted or top-dose-only effect; inactive = flat fitted curve, though single readings scatter. Potencies of inconclusive entries are left out as doubtful fits.
test: qHTS for Inhibitors of human tyrosyl-DNA phosphodiesterase 1 (TDP1): qHTS in cells in absence of CPT; details: DT40 Tdp1-/- hTDP1 cells, no CPT, ATP luminescence, 48 h; activity change, negative = growth inhibition: at 46.2 µM (top of the series) unless noted; note: nearly all actives have a fitted effect of over 55% in size
In short: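 Compound effects on proliferation are scored in DT40 Tdp1-/-;hTDP1 cells in the absence of CPT. ATP levels (CellTiter-Glo luminescence) are recorded after a ≥48 hr, 37 °C incubation.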
% is set by controls: 0 for no effect and ±100 for the full control effect; potency is the fitted concentration of half-maximal effect; tags give direction and shape of the fitted curve.

Structure (SMILES) | Potency | activity change, negative = growth inhibition
CC(=O)Nc1cc(C(=O)N2CCN(C)CC2)ccc1Sc1ccc(C)cc1 | inactive | –
CCc1ccc(C(=O)COC(=O)c2cnccn2)cc1 | inactive | –
Cc1onc(-c2ccccc2)c1C(=O)NCc1ccc(F)cc1 | inactive | –
O=C(COc1ccc(Br)cc1)NCCNC(=O)c1ccccn1 | inactive | –
COc1cccc(NC(=O)C(c2ccccc2)N2CCCCC2)c1 (stereo not given) | inconclusive [inhibitor, partial curve] | –
CC(=O)N1CCN(S(=O)(=O)c2cccc(C(=O)N(Cc3ccccc3)c3cccc(C)c3)c2)CC1 | inconclusive [inhibitor, single point] | –
Clc1ccc2c(c1)C1CC2CCN1Cc1ccccc1 (stereo not given) | inactive | –
CCOc1ccc(CCNC(=O)c2ccc3nc(CC)c(CC)nc3c2)cc1 | inconclusive [inhibitor, single point] | –
O=C(Nc1ncc(Cc2cccc(C(F)(F)F)c2)s1)c1ccc(-c2cccc([N+](=O)[O-])c2)o1 | inconclusive [inhibitor, single point] | –
Cc1ccc2c(Cl)cc(Cl)c(OCC(=O)NC(C)(C)C)c2n1 | active: 23.1 µM | –
CC(C)CCNC(=O)c1cc(-c2cccs2)nc2ccccc12 | inconclusive [inhibitor, single point] | –
C=CCc1cccc2cc(C(=O)OCC(=O)c3ccccc3)c(=O)oc12 | inactive | –
COc1ccc(-c2nc3ccccc3c(=O)o2)cc1OC | inactive | –
CC(Nc1ccc(Br)cc1)C(=O)N/N=C/c1ccccc1OCc1ccccc1 (stereo not given) | inconclusive [inhibitor, single point] | –
O=C(Nc1ccc(F)cc1F)c1ccc2c(=O)n3c(nc2c1)CCCCC3 | inconclusive [inhibitor, single point] | –
Cc1cccc(C)c1NC(=S)NCCSc1ccc(Cl)cc1 | inconclusive [inhibitor, single point] | –
CC[C@H](C)[C@H](NC(=O)OCc1ccccc1)C(=O)Nc1ccc(NC(C)=O)cc1 | inactive | –
O=C(O)/C=C/c1cn(-c2ccccc2)nc1-c1cccs1 | inconclusive [inhibitor, partial curve, poor fit] | –
COc1ccc(N2CC(C(=O)Nc3nnc(SCc4ccccn4)s3)CC2=O)cc1 (stereo not given) | inactive | –
Nc1ccc2nn(-c3ccc(Cl)cc3)nc2c1 | active: 9.2 µM | –
CCCCCCCNC(=O)C1(CC2CC(c3ccc(Cl)cc3)=NO2)CCNCC1 (stereo not given) | active: 10.3 µM | –
C=CCn1c(SCc2csc(-c3ccc(Cl)cc3)n2)nnc1-c1ccccc1OC | inconclusive [inhibitor, single point] | –
CC(C)n1c(SCC(=O)Nc2nc3ccccc3s2)nc2c1c(=O)n(C)c(=O)n2C | active: 20.6 µM | –
CC(=O)c1c(C)[nH]c(C(=O)OCC(=O)NCCc2ccc(F)cc2)c1C | active: 23.1 µM | –
Cc1cc(C)c(C#N)c(N2CCN(Cc3ccc4c(c3)OCO4)CC2)n1 | inconclusive [inhibitor, single point] | –

Structure (SMILES) | Potency | activity change, negative = growth inhibition
COc1ccc(CCNC(=O)CCC(=O)N2CC(C)Oc3ccccc32)cc1OC (stereo not given) | inconclusive [inhibitor, partial curve, poor fit] | –
CC(=O)NCCNc1nc2cc(-c3ccc4c(ccn4C)c3)sc2c(=O)n1C | inactive | –
Cc1ccc2nc(SCCCCOc3ccccc3)[nH]c2c1 | inconclusive [inhibitor, single point] | –
COC(=O)c1cc(C(=O)N2CCN(c3cccc(C)c3C)CC2)cc([N+](=O)[O-])c1 | active: 2.59 µM | –
CN(Cc1ccccc1F)c1nc(-c2cccnc2)nc2ccccc12 | inconclusive [inhibitor, single point] | –
CCOC(=O)CSc1nc2c(sc3ccc([N+](=O)[O-])cc32)c(=O)n1Cc1ccco1 | inconclusive [inhibitor, single point] | –
Cc1nn(Cc2c(F)c(F)c(F)c(F)c2F)c(C)c1NC(=O)c1ccc(COc2ccccc2Cl)cc1 | active: 1.46 µM | –
CC1(C(=O)O)CCC(C(=O)Nc2ccc(OC(F)(F)Cl)cc2)C1(C)C (stereo not given) | inactive | –
Cc1[nH]n(-c2ccccc2)c(=O)c1-c1ccc(Cl)cc1 | inconclusive [inhibitor, single point] | –
CCOCC(=O)Nc1nc2ccc(OCC)cc2s1 | inconclusive [inhibitor, single point] | –
Cc1cc(-c2cc(C(=O)NCc3ccccc3)on2)nc(NC2CCCC2)n1 | inconclusive [inhibitor, partial curve, poor fit] | –
Clc1ccccc1OCc1nc(-c2ccncc2)no1 | inconclusive [inhibitor, single point] | –
Cc1ccc(-c2nnc(NC(=O)c3ccco3)o2)c(C)c1 | inconclusive [inhibitor, partial curve, poor fit] | –
C=CCNC(=O)NC(=O)COC(=O)CC(NC(N)=O)c1ccc(Cl)cc1 (stereo not given) | – | inconclusive: -29% [inhibitor]
CSc1nnc2n(-c3ccccc3)c(=O)c3c4c(sc3n12)CCC4 | inactive | –
COc1ccc(NC(=O)NC(C)c2ccc3c(c2)OCO3)c(OC)c1 (stereo not given) | inactive | –
CC(=O)c1ccc(N(CC(=O)NCCc2ccccc2)C(=O)c2csnn2)cc1 | inactive | –
C=C1SC(=Nc2ccccc2Cl)N(C(=O)c2sc3ccccc3c2Cl)C1(C)C | inconclusive [inhibitor, partial curve] | –
CN(CCO)CCOCCOc1cccc2ccccc12 | inconclusive [inhibitor, full curve, poor fit] | –
O=C(CSc1ccccc1F)NNC(=O)c1cncc(Br)c1 | inactive | –
CC(C)NC(=O)CSCc1c(Cl)cccc1Cl | active: 14.6 µM | –
O=C(COC(=O)c1ccccc1O)NC12CC3CC(CC(C3)C1)C2 | active: 18.4 µM | –
O=C(N/N=C/c1ccc2cccc(OCc3ccccc3)c2n1)c1ccc(Br)cc1 | inconclusive [inhibitor, single point] | –
CC1Sc2ccc(S(=O)(=O)CCC(=O)N3CCN(c4cccc(Cl)c4)CC3)cc2NC1=O (stereo not given) | active: 7.31 µM | –
Cc1cc(NC(=O)CCC(=O)N(CC2CCCO2)C(C(=O)NC2CCCC2)c2cccnc2)no1 (stereo not given) | inactive | –

Structure (SMILES) | Potency | activity change, negative = growth inhibition
CCSc1ncc(Cl)c(C(=O)N2CCN(c3ccc(OC)cc3)CC2)n1 | inconclusive [inhibitor, single point] | –
CCCCSC1(SCCCC)N=C(N)C2(C#N)C(c3ccccc3)NC(C)=CC12C#N (stereo not given) | inconclusive [inhibitor, single point] | –
CCOc1ccc(C=Nc2ccc(/C=C/c3ccnc4ccccc34)cc2)cc1OCC | active: 10 µM | –
O=C(NC(=S)Nc1ccc(S(=O)(=O)Nc2nccs2)cc1)c1ccc(Br)o1 | – | inconclusive: -31.5% [inhibitor]
Cc1noc(C)c1CCC(=O)NC1CCCN(Cc2ccc(Cl)cc2)C1 (stereo not given) | inactive | –
CC(C)(C)C1CCC(OC(=O)CN2CCOCC2)CC1 (stereo not given) | inactive | –
COC(=O)[C@@H]1C[C@H]2CC[C@H](O)C[C@H]2N1Cc1ccc(Cl)cc1 | inconclusive [inhibitor, single point] | –
NC(=O)c1ccc(NC(=O)COC(=O)C2CCN(S(=O)(=O)c3cccs3)CC2)cc1 | inactive | –
C=Cc1ccc(Cn2c(=O)n(-c3cccc(C)c3)c(=O)c3c2c2cc(C)ccc2n3C)cc1 | inconclusive [inhibitor, partial curve] | –
CN(Cc1c(F)cccc1Cl)C(=O)COC(=O)Cn1cnc2ccccc2c1=O | inactive | –
Cc1ccc(S(=O)(=O)N2CCN(c3ccccc3)CC2)cc1C(=O)NC1CCCCC1 | – | inconclusive: -30.4% [inhibitor]
CCCc1cc(NC(=O)COC(=O)c2ccc(O)cc2O)n(-c2ccccc2)n1 | inconclusive [inhibitor, single point] | –
CCSc1nnc(NC(=O)c2ccccc2C)s1 | inconclusive [inhibitor, partial curve] | –
CCN(CC)CCCNC(=O)c1ccc2nc(CCc3ccccc3)oc2c1 | inconclusive [inhibitor, single point] | –
O=S(=O)(c1cccc(Cl)c1)c1nnn2c1nc(NC1CCCCCC1)c1sccc12 | inconclusive [inhibitor, single point] | –
CC(=O)Nc1cc(-c2cccc(C(=O)N(C)C)c2)cn2c(-c3ccc(F)c(Cl)c3)cnc12 | inconclusive [inhibitor, single point] | –
CCOc1ccccc1N1CCN(C(=S)NCc2ccccc2)CC1 | inconclusive [inhibitor, single point] | –
Cc1cc(C)c(NC(=O)CCCSc2nnc(N)s2)c(C)c1 | inconclusive [inhibitor, partial curve] | –
S=c1[nH]nc(C2CCCCC2)n1/N=C/c1ccccc1 | inactive | –
O=c1c(Cc2ccc(Cl)cc2Cl)c(O)ccn1CCCN1CCOCC1 | inactive | –
O=C(NC1CCCC1)C(=O)N(Cc1cccnc1)C(C(=O)NCc1ccco1)c1ccccc1F (stereo not given) | inactive | –
CCCn1c(N2CCN(C(=O)Nc3ccc(Cl)cc3)CC2)nc2ccccc21 | active: 23.1 µM | –
COC(=O)c1cc(S(=O)(=O)N2CCCCCC2)cn1C | inactive | –
O=C(COc1ccc(-c2ccccc2)cc1)N1CCN(S(=O)(=O)Cc2ccccc2)CC1 | active: 14.6 µM | –
O=C(Nc1ccc2c(c1)N(C1CCCC1)C(=O)c1ccccc1S2)c1ccc(F)cc1 | inconclusive [inhibitor, single point] | –

Source: PubChem BioAssay AID686978 (National Center for Advancing Translational Sciences (NCATS), 2013)
